# Publication PMC4336329 (PLoS ONE, 2015)
# Hit rate of the full screen: of about 310,000 compounds, about 14,000 (4.5%) showed an effect of 50% or more. The effect is printed as a negative number. The list shows a part of the results.
# Biological target: human ether-à-go-go-related gene (hERG) potassium channel (human, UniProt Q12809)
# Experiment: primary screen, population patch clamp on CHO cells stably expressing hERG
# 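Further: peak tail current of the secondary pulse compared with the same well before compound.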
# Sequence of human ether-à-go-go-related gene (hERG) potassium channel (Q12809 whole entry, looked up): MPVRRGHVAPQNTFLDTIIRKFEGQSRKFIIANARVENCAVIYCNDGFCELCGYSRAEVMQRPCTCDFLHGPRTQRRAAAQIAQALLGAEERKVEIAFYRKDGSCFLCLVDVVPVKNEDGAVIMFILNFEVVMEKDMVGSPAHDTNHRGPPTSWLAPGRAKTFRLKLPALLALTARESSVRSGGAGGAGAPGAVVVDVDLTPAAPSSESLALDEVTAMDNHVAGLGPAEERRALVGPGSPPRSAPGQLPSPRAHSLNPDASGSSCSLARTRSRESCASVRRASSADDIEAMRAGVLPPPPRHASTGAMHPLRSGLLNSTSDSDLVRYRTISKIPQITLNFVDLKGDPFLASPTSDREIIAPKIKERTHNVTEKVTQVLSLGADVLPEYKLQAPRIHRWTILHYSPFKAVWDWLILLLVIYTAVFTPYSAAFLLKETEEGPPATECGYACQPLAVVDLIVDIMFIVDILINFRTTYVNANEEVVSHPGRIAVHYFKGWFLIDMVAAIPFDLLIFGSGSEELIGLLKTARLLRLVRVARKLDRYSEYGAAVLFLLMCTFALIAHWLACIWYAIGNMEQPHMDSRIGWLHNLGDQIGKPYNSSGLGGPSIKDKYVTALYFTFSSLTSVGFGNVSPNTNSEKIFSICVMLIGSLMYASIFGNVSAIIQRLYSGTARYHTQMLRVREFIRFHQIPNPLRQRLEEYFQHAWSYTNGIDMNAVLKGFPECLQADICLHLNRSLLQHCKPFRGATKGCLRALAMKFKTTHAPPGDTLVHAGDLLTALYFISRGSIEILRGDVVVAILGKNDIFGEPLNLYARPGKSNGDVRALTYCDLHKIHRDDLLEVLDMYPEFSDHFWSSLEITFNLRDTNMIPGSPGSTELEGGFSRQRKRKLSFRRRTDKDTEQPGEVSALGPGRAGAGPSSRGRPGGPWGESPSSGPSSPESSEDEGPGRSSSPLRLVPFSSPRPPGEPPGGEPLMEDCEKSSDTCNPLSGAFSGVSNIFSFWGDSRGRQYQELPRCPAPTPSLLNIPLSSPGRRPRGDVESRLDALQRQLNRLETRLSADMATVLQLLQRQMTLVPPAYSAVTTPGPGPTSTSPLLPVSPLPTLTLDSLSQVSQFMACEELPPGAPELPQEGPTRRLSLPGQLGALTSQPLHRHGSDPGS
row,Structure (SMILES),"hERG current change (%, negative = inhibition) at 10uM"
1,Cc1onc(-c2ccccc2Cl)c1C(=O)Nc1ccc(-c2nnc3n2CCCCC3)cc1,-4.31%
2,CCOC(=O)c1[nH]ncc1CN1CCCC(C(=O)c2ccc(C(C)(C)C)cc2)C1 (stereo not shown),-17.6%
3,COc1ccc(NC(=O)CSc2nnc(Cc3ccc(C)cc3)c(=O)n2N)cc1,-4.36%
4,CCC1CCCCN1C(=O)COC(=O)CSc1ccc(C(N)=O)cc1[N+](=O)[O-] (stereo not shown),-16.1%
5,CCc1ccc(CN2CCN(C(=O)c3ccco3)CC2)cc1.O=C(O)C(=O)O,-23.8%
6,O=C(OCCN1CCN(c2ncc(C(F)(F)F)cc2Cl)CC1)c1ccc(Cl)cc1,10.4%
7,Cc1ccccc1CNC(=O)COc1ccccc1,4.39%
8,COC(=O)c1cn(CCOc2ccccc2)c2ccccc12,6.29%
9,CCSc1nc2c([nH]c3ccccc32)c(=O)n1C,0.208%
10,Cc1ccc(C)c(N2CCN(CC(=O)Nc3ccc4[nH]c(=O)[nH]c4c3)CC2)c1,-3.56%
11,O=C1/C(=C/c2cccc(F)c2)Oc2cc(O)ccc21,15.6%
12,COCCn1c(C)cc(C(=O)CSc2nc3ccccc3c(=O)n2Cc2ccco2)c1C,-31.2%
13,CCc1ccc(Nc2ncc3c(n2)CC(c2ccc(OC)cc2)CC3=O)cc1 (stereo not shown),-1.22%
14,C#CCOCCOCCOCCNc1nc(N2CCN(C(=O)[C@H]([C@@H](C)CC)n3cc([C@@H](N)CC(C)C)nn3)CC2)nc(N2CCN(C(=O)[C@H](CCCCN)n3cc([C@@H](N)C(C)CC)nn3)CC2)n1.Cl (stereo partly shown),7.84%
15,Cc1noc(C)c1COc1ccccc1C(=O)NNC(=O)c1ccc(F)cc1,-4.35%
16,CC(C)OCCCn1c(SCC(=O)N2CCCC2=O)nc2ccccc2c1=O,-19.8%
17,CCS(=O)(=O)CCSc1nc(C)cc(C)c1C#N,-0.949%
18,CC(=O)N(C1=NCCCS1)c1ccccc1Cl,-1.34%
19,Cc1cc(C)nc(NC2=NCC(=O)N2c2ccc(F)c(Cl)c2)n1,-6.65%
20,COCCn1c(-c2ccc(OC(F)(F)C(F)C(F)(F)F)cc2)nc2c1c(=O)[nH]c(=O)n2CC(C)C (stereo not shown),-19.5%
21,CN(Cc1ccccc1F)C(=O)CN1CCN(S(=O)(=O)c2ccc3c(c2)OCCCO3)CC1,-18.4%
22,COc1cc(NC(=O)COC(=O)/C=C/c2ccc(OC)c(OC)c2)cc(OC)c1,1.13%

row,Structure (SMILES),"hERG current change (%, negative = inhibition) at 10uM"
1,CCCCCCOc1ccc(/C=N/NC(=O)C2CC2)cc1,11.6%
2,O=C(/C=C\c1ccc2c(c1)OCO2)Nc1nnc(SCC(=O)OCc2ccccc2)s1,16.2%
3,O=C(CCC(=O)NNC(=O)COc1ccc(Br)cc1)NCc1ccccc1,19.6%
4,CCCCNC(=O)CSc1nc(COc2ccccc2)nc2ccccc12,5.31%
5,CC1=Nc2cc(C(=O)NCC3CCCO3)ccc2Sc2ccc(Br)cc21 (stereo not shown),-18.5%
6,CCCCc1ccc(NC(=O)N[C@H](C(=O)O)C(C)CC)cc1 (stereo partly shown),-10.2%
7,COC(Cc1nnc(SC)n1-c1ccc(Cl)cc1)OC,-4.54%
8,COC(=O)Nc1ccc(OC)c(OC)c1,4.01%
9,O=S(=O)(c1cccs1)N1CCc2ccccc2C1,-5.63%
10,CCc1ccc(OCC(=O)Nc2cccc3nsnc23)cc1,15%
11,COC(=O)c1ccccc1S(=O)(=O)N1Cc2cc([N+](=O)[O-])ccc2Oc2ccccc21,11.7%
12,O=c1[nH]c2cc(Cl)ccc2n1-c1ccccc1,-3.91%
13,O=S(=O)(c1cccs1)N1CCC2(CC1)OCCO2,10.3%
14,CC(C)(C)c1nc2c(C#N)c(-c3ccc(Cl)cc3)ccn2n1,-11.5%
15,CC(CCc1ccc(O)cc1)NC1c2ccccc2-c2ccccc21 (stereo not shown),-24.4%
16,Nc1c(-c2cccs2)cnn1-c1nc(-c2ccc(Cl)cc2Cl)cs1,-15.6%
17,COc1cc(NS(=O)(=O)c2ccc3[nH]c(=O)[nH]c3c2)cc(OC)c1,22.8%
18,O=C1[C@H]2[C@@H](c3ccc(F)cc3)N3C(=O)N(c4ccc(Br)cc4)C(=O)[C@@]3(Cc3ccc(Cl)cc3)[C@H]2C(=O)N1C1CCCCC1,14%
19,CC(C)(C)NC(=O)C(c1ccc(Cl)cc1)N(CCO)C(=O)c1snc(C(N)=O)c1N (stereo not shown),7.97%
20,CCN(C(=O)CSc1cc(C)c2ccccc2n1)c1c(N)n(Cc2ccccc2)c(=O)[nH]c1=O,27.4%
21,COc1ccc(/C=N/NC(=O)C(N)=O)c(OC)c1OC,6.45%
